Results: publication PMC8138981, “An epilepsy-causing mutation leads to co-translational misfolding of the Kv7.2 channel” (BMC Biology, 2021)

T1: HA-Kv7.3 (Kv7.3 with an extracellular hemagglutinin epitope) (human, UniProt O43525 1-872)
T1 construct: Kv7.3 (KCNQ3), human, cDNA NM004519; also called pcDNA3-HA-Kv7.3; source: HEK293T, transfected (pcDNA3), in lysate
T1 sequence (looked up): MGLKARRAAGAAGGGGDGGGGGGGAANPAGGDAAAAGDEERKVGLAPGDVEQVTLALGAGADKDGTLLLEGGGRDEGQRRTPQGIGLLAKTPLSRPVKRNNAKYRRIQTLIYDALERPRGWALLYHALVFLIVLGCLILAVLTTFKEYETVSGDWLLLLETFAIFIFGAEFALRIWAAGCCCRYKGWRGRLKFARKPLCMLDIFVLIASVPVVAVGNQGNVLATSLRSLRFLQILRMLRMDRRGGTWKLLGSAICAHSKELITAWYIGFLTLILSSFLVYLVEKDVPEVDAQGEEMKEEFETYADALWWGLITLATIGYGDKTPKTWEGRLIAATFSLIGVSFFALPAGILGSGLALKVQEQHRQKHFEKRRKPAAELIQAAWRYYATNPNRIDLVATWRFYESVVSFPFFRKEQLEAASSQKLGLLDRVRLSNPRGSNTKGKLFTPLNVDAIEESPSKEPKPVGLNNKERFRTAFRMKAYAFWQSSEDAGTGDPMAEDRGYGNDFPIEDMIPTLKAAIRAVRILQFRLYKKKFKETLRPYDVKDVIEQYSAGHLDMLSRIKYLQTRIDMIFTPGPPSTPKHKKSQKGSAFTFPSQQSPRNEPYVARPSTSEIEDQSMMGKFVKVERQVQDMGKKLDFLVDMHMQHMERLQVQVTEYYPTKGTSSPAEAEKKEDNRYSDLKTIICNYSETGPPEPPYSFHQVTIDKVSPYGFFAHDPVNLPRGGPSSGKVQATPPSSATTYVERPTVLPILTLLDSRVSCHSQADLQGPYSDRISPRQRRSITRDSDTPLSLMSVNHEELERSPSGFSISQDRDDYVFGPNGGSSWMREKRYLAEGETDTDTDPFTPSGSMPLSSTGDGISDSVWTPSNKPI


Target: T1, HA-Kv7.3 (Kv7.3 with an extracellular …)
Test: co-IP; HEK293T co-transfected with 1 μg HA-Kv7.3 and 0.5 μg CFP-Kv7.2 WT or I340E, or 1 μg CFP-Kv7.2 W344R; 1% Triton X-100 IP buffer; rabbit anti-HA on protein A/G agarose, overnight 4 °C; blots with anti-GFP and anti-HA, normalised to WT
Details: partners not purified

Row | Binder | co-IP signal relative to WT [%]
1 | CFP-tagged Kv7.2 I340E subunit (natural protein, human, Whole subunit implied; also called CFP-Kv7.2 I340E; source: HEK293T, transfected (pcDNA3.1), in lysate; not shown: CFP, N-terminal, kept) MVQKSRNGGVYPGPSGEKKLKVGFVGLDPGAPDSTRDGALLIAGSEAPKRGSILSKPRAGGAGAGKPPKRNAFYRKLQNFLYNVLERPRGWAFIYHAYVFLLVFSCLVLSVFSTIKEYEKSSEGALYILEIVTIVVFGVEYFVRIWAAGCCCRYRGWRGRLKFARKPFCVIDIMVLIASIAVLAAGSQGNVFATSALRSLRFLQILRMIRMDRRGGTWKLLGSVVYAHSKELVTAWYIGFLCLILASFLVYLAEKGENDHFDTYADALWWGLITLTTIGYGDKYPQTWNGRLLAATFTLIGVSFFALPA[about 350 residues with changes cut from this listing]RHGCIVKIVRSSSSTGQKNFSAPPAAPPVQCPPSTSWQPQSHPRQGHGTSPVGDHGSLVRIPPPPAHERSLSAYGGGNRASMEFLRQEDTPGCRPPEGNLRDSDTSISIPSVDHEELERSFSGFSISQSKENLDALNSCYAAVAPCAKVRPYIAEGESDTDSDLCTPCGPPPRSATGEGPFGDVGWAGPRK | 84.3
2 | CFP-tagged Kv7.2 W344R subunit (natural protein, human, Whole subunit implied; also called CFP-Kv7.2-W344R; CFP-KCNQ[…]R; source: HEK293T, transfected (pcDNA3.1), in lysate; not shown: mCFP, N-terminal, kept) MVQKSRNGGVYPGPSGEKKLKVGFVGLDPGAPDSTRDGALLIAGSEAPKRGSILSKPRAGGAGAGKPPKRNAFYRKLQNFLYNVLERPRGWAFIYHAYVFLLVFSCLVLSVFSTIKEYEKSSEGALYILEIVTIVVFGVEYFVRIWAAGCCCRYRGWRGRLKFARKPFCVIDIMVLIASIAVLAAGSQGNVFATSALRSLRFLQILRMIRMDRRGGTWKLLGSVVYAHSKELVTAWYIGFLCLILASFLVYLAEKGENDHFDTYADALWWGLITLTTIGYGDKYPQTWNGRLLAATFTLIGVSFFALPA[about 350 residues with changes cut from this listing]RHGCIVKIVRSSSSTGQKNFSAPPAAPPVQCPPSTSWQPQSHPRQGHGTSPVGDHGSLVRIPPPPAHERSLSAYGGGNRASMEFLRQEDTPGCRPPEGNLRDSDTSISIPSVDHEELERSFSGFSISQSKENLDALNSCYAAVAPCAKVRPYIAEGESDTDSDLCTPCGPPPRSATGEGPFGDVGWAGPRK | 76.4
